Source: PubChem BioAssay AID485344 (National Center for Advancing Translational Sciences (NCATS), 2010)
The whole screen tested about 340,000 compounds, of which about 6,900 (2%) were called active. Rule as the data show it: active = inhibition above about 30%; inactive = below that, where a call was filed. Only a part is listed here, and it is no random draw. The source gives no active or inactive call for entries shown without one.
Also: 0% is about no effect.

Each compound was assayed against D(2) dopamine receptor (Homo sapiens) (UniProt P14416) (assay: HTS Assay for Allosteric Antagonists of the Human D2 Dopamine Receptor: Primary Screen for Antagonists). Settings: HEK293 TREx D2 cells, calcium flux, dopamine EC80; at 10 µM; stronger effect = higher value.
Sequence of UniProt P14416 (P14416 whole entry, looked up): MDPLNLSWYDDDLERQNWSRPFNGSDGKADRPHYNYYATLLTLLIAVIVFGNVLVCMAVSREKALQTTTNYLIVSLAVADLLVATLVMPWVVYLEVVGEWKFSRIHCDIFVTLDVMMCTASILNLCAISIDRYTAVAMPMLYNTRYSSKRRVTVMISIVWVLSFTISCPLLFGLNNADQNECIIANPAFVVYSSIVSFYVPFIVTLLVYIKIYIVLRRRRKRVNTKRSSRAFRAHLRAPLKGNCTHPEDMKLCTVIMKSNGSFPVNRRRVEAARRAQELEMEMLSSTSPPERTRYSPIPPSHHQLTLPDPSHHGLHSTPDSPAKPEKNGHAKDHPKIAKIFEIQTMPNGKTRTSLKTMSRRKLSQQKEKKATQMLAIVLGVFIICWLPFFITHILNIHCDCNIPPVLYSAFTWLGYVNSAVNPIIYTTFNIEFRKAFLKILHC
In short: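 Tetracycline-induced HEK293 T-REx cells expressing D2 force-coupled to calcium signalling were dye-loaded, exposed to compound for 180 s, then challenged with an EC80 of dopamine; calcium flux was followed kinetically for a further 180 s.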
Work on `CC(C)CC(=O)Nc1nnc(S(=O)(=O)N(CC(C)C)c2ccccc2)s1` yielded an inhibition of -0.265%. `Cc1ccc(CNC(=O)CCC(=O)N2CC3CCCN3c3ccccc32)cc1` (stereo not given) showed an inhibition of 24.5%. `c1ccc(OCCN2CCN(C(c3ccccc3)c3ccccc3)CC2)cc1` was tested, and the inhibition was active: 46%. With `Cn1c(=O)c2c(ncn2CC2OCCO2)n(C)c1=O` the inhibition was active: 32%. Work on `O=C(Nc1ccc2oc(-c3cc(Br)ccc3Cl)nc2c1)c1cc2ccccc2o1` yielded an inhibition of 8.41%. With `Cc1ccc(NC(=O)CN(C)C(=O)CSc2ncc(C(F)(F)F)cc2Cl)cc1` the inhibition was active: 93%. Work on `COc1cc(-c2cc3n(C)c(C)c(CCC(=O)O)c(=O)n3n2)cc(OC)c1OC` yielded an inhibition of -3.33%. In the case of `CCCn1c(CN2CCN(c3ccc(OC)cc3)CC2)nc2c1c(=O)[nH]c(=O)n2C`, the inhibition is reported as -12.5%. `O=S(=O)(Nc1cccc(-n2cnnn2)c1)c1cnc(Cl)c(Cl)c1` was tested, and the inhibition was active: 34.6%. `Cc1cccc(OCc2nc(CC(=O)Nc3ccc(C)c(C)c3)cs2)c1` showed an inhibition of -5.56%. With `NNC(=O)CNS(=O)(=O)c1ccc([N+](=O)[O-])cc1` the inhibition was active: 49.1%. For `N#Cc1ccc(S(=O)(=O)N2CCC(C(=O)N3CCN(Cc4ccc5c(c4)OCO5)CC3)CC2)cc1`, the inhibition was active: 42.6%. Compound `Cc1ccc(N2CCN(C(=O)C3CCN(S(=O)(=O)c4ccc5c(c4)oc(=O)n5C)CC3)CC2C)cc1` (stereo not given) has an inhibition of -16.4%. `Cc1cc(C)c(S(=O)(=O)NCCc2cc3ccc(C)c(C)c3[nH]c2=O)c(C)c1` gave an inhibition of 13.8%. With `CC(=O)c1ccc(NC(=O)CCc2c(C)nn(-c3ccc(N4CCOCC4)nn3)c2C)cc1` the inhibition was 1.61%. `O=c1c2sc3ccccc3c2n(Cc2cccc(Cl)c2)c(=O)n1Cc1ccco1` showed an inhibition of 7.32%. `Cc1cc(C)cc(-n2c(C)nc3cc(C(=O)O)ccc32)c1` gave an inhibition of -6.32%. `CCOc1ccc(C2=CC(c3cccc(Br)c3)n3c(nc4ccccc43)N2)cc1Cl` (stereo not given) showed an inhibition of 13.7%. `Cc1cc(NC(=O)c2cc(-c3cccc(Cl)c3)on2)n(-c2ccccc2)n1` was tested, and the inhibition was -16.7%. `COc1ccc(-c2noc(-c3ccc(NCc4cccnc4)c([N+](=O)[O-])c3)n2)cc1OC` showed an inhibition of -15.5%. Compound `Cc1c(C(=O)N(C)C)sc2c1c(=O)n(-c1ccc(Cl)cc1)c(=O)n2CC(=O)C(C)(C)C` has an inhibition of 9.09%. With `COc1ccc(C(=O)c2c(N)c(C(=O)Nc3cccc(OC)c3)c3ccccn23)cc1` the inhibition was -0.481%. Compound `Cc1ccc(NC(=O)Cn2nc(N3CCN(c4ccccc4)CC3)ccc2=O)cc1F` has an inhibition of -1.98%. In the case of `COc1ccc(-n2c(=O)c3sc4ccccc4c3n(Cc3ccccc3C)c2=O)cc1OC`, the inhibition is reported as 23.4%. With `CCC1CCCCN1S(=O)(=O)c1cc2c3c(c1)CC(=O)N3CCC2` (stereo not given) the inhibition was -13.4%. Compound `CCOC(=O)c1c(C)[nH]c(C)c1S(=O)(=O)N1CCC(C(=O)NCc2cccc(OC)c2)CC1` has an inhibition of -2.02%. With `CCC(C(=O)O)n1ccc2cc(S(=O)(=O)N3CCCCC3)ccc21` (stereo not given) the inhibition was 15.7%. In the case of `CCOc1ccc(NC(=O)Nc2ccc(N(C)C(C)=O)cc2)cc1`, the inhibition is reported as active: 31.6%. In the case of `COC(=O)C1CCN(CCCOc2ccc(CN3CCN(c4ccc([N+](=O)[O-])cc4)CC3)cc2)CC1`, the inhibition is reported as active: 84.1%. With `CCCSc1ncc(Cl)c(C(=O)N(Cc2ccc(Cl)cc2)Cc2ccco2)n1` the inhibition was 0.05%. `CCc1ccccc1NC(=O)Cn1c(=O)ccc2cc(S(=O)(=O)N3CCCC3)ccc21` gave an inhibition of 6.87%. Work on `CCOC(=O)N1CCc2c(sc3c2c(=O)n(-c2ccc(CC)cc2)c(=O)n3C)C1` yielded an inhibition of 3.2%. `COc1ccc(OCc2ccc(-c3nc(C#N)c(N4CCCCC4)o3)o2)cc1` gave an inhibition of 4.53%. Work on `Cc1ccccc1OCC(=O)N1CCC(c2nc3ccccc3s2)CC1` yielded an inhibition of 19.3%. In the case of `COc1ccc(C2c3c(n(C)c4ccccc34)C(=O)N2CC(=O)Nc2cccc(Cl)c2C)cc1` (stereo not given), the inhibition is reported as -2.51%. Work on `Cc1cccc(N2CCN(C(=O)c3cnc(N4CCCC4)nc3C)CC2)c1C` yielded an inhibition of 11.7%. `CCc1ccccc1Nc1sc(C(=O)c2cccc(OC)c2)c(N)c1S(=O)(=O)c1ccccc1` gave an inhibition of 4.15%. For `Cn1c(=O)oc2cc(S(=O)(=O)NCCN3CCN(c4ccccc4)CC3)ccc21`, the inhibition was active: 65.2%. With `CC1CCCN(C(=O)Cn2ncc3c([nH]c4ccccc43)c2=O)C1` (stereo not given) the inhibition was 12.7%. With `CCCCOc1ccc(C(=O)NCc2nnnn2-c2ccc(C)c(C)c2)cc1` the inhibition was 7.8%. `COC(=O)c1c(NC(=O)/C(C#N)=C/c2ccccc2)sc2c1C(C(=O)OC)CC2` (stereo not given) showed an inhibition of -0.22%. For `CCOC(=O)c1c(C)oc2ncnc(Nc3cc(C)cc(C)c3)c12`, the inhibition was -8.65%. For `O=C(NCCc1csc2nc(-c3ccccc3F)nn12)C(=O)Nc1cc(F)ccc1F`, the inhibition was 3.08%. For `O=C(NCCCN1CCN(c2cccc(Cl)c2)CC1)c1cnn(-c2ccc(F)cc2)c1-n1cccc1`, the inhibition was 6.45%. For `CSCSC1=C(C#N)C(c2ccc(Cl)cc2)C(C(C)=O)=C(C)N1` (stereo not given), the inhibition was active: 31.6%. `CCC1=C(c2ccc(C)cc2)S(=O)(=O)N=C1N1CCC(C(=O)NCc2ccc(N(C)C)cc2)CC1` was tested, and the inhibition was -23.4%. Compound `CCN1C(=O)c2ccccc2Sc2ccc(NC(=O)Nc3cccc([N+](=O)[O-])c3C)cc21` has an inhibition of 16%. `COc1ccc(CNC(=O)c2cnn3c(C)c(Cc4c(F)cccc4Cl)c(C)nc23)cc1` was tested, and the inhibition was -6.12%. `COc1ccc(N(C(=O)c2ccc(C(C)(C)C)cc2)S(=O)(=O)c2ccc(Cl)cc2)cc1` gave an inhibition of -8.39%. `CCOc1ccc(-n2c(SCC(=O)Nc3ccc(CC)cc3)nc3c(oc4ccccc43)c2=O)cc1` showed an inhibition of -1.17%. Work on `CCOc1cc(C(=O)Nc2ccc3c(c2)n(C)c(=O)c(=O)n3C)cc(OCC)c1OCC` yielded an inhibition of -4.14%. In the case of `CCOC(=O)CCc1c(C)nc2cc(-c3cc(OC)cc(OC)c3)[nH]n2c1=O`, the inhibition is reported as 8.59%. `O=C(Nc1ccc(OC(F)(F)F)cc1)c1noc2c1CCCC2` showed an inhibition of -5.57%. `O=C1C(=O)c2ccccc2C(O)=C1c1cccc([N+](=O)[O-])c1` was tested, and the inhibition was active: 48.1%. In the case of `COc1ccc2[nH]c3c(c2c1)CCn1c-3nc2sc(C(=O)Nc3ccccc3)c(C)c2c1=O`, the inhibition is reported as active: 39.2%. `COC(=O)c1ccc(NC(=O)CC2C(=O)N(c3cccc(OC)c3)C(=O)N2C(C)C)cc1` (stereo not given) showed an inhibition of -11.8%. Work on `COc1cc(NC(=O)c2cc(-c3cccc(OC)c3)n[nH]2)cc(OC)c1` yielded an inhibition of 10.4%. In the case of `COc1cccc(C(=O)NC2CC3CCC(C2)N3Cc2ccccc2)c1` (stereo not given), the inhibition is reported as active: 95.5%. Compound `COc1cc(NC(=O)c2nnn(CC(=O)Nc3cc(C)ccc3C)c2N)cc(OC)c1` has an inhibition of 1.37%. `CC(C)(C)OC(=O)N1CCC(c2c(C(=O)N3CCN(C(=O)c4ccco4)CC3)cnn2-c2ccc(F)cc2F)CC1` was tested, and the inhibition was -6.91%. Compound `CCCOC(=O)c1c(NC(=O)c2cc3ccccc3c(=O)o2)sc2c1CCC(C)C2` (stereo not given) has an inhibition of -13%. `CCOc1ccc(-n2nc3ccc(NC(=O)Cc4ccccc4)cc3n2)cc1` was tested, and the inhibition was -1.07%. Compound `CCOC(=O)c1cnc2c(Cl)cc(Cl)cc2c1Nc1ccccc1OC` has an inhibition of 10.7%. `COc1ccc(-c2cn3c(C)c(C(=O)Nc4cc(C)cc(C)c4)sc3n2)cc1` showed an inhibition of 4.6%. `COC(=O)c1ccc(Cn2nnc3c(=O)[nH]c(C4CCCN(S(=O)(=O)c5ccccc5Cl)C4)nc32)cc1` (stereo not given) gave an inhibition of 10.7%. `Cc1ccc(-c2nnc3c4ccccc4c(C)nn23)cc1NC(=O)c1ccccc1` was tested, and the inhibition was 7.48%. In the case of `CCc1cccc(NC(=O)CN(C)S(=O)(=O)c2ccc3[nH]c4c(c3c2)CCCC4)c1`, the inhibition is reported as 1.56%. `CCc1ccccc1-n1c(N)c(C(=O)OC)c2nc3ccccc3nc21` gave an inhibition of -1.22%. With `Cc1cc(-c2ccc(C)c(S(=O)(=O)N3CCOc4ccc(Cl)cc43)c2)on1` the inhibition was -3.49%. For `COc1ccc(CCNc2ncnc3c2nnn3C)cc1`, the inhibition was -18.4%. In the case of `COC(=O)c1sc2cccc(F)c2c1S(=O)(=O)N1CCN(c2cccc(C)c2)C(C)C1` (stereo not given), the inhibition is reported as 12.9%. `CCOC(=O)N1CCc2c(sc(N)c2C#N)C1` was tested, and the inhibition was active: 58.2%. `CC1CCc2c(sc(NC(=O)CCCOc3ccccc3)c2C(N)=O)C1` (stereo not given) showed an inhibition of -6.13%. In the case of `COc1n[nH]c(C(=O)Nc2cc(Cl)ccc2Cl)c1[N+](=O)[O-]`, the inhibition is reported as active: 32.1%. For `O=c1cc(C(F)(F)F)oc2c1ccc1ccccc12`, the inhibition was active: 33.7%. Compound `COc1ccc(-c2cc(C(=O)Oc3ccc(Br)cc3)c3ccccc3n2)cc1` has an inhibition of 6.7%. `Cc1ccc(NC(=O)c2oc3ccccc3c2NC(=O)C2CCCCC2)cc1` was tested, and the inhibition was 11.2%. In the case of `COc1cc(OC)c(NC(=O)CCc2nc(C3=CCN(Cc4cccc(Cl)c4)CC3)no2)cc1Cl`, the inhibition is reported as 4.03%. `CCc1ccc(-n2c(=O)c3sc4ccccc4c3n(CC(=O)NC3CCCC3)c2=O)cc1` was tested, and the inhibition was -1.63%. Compound `Cc1nc2nc(CNC(=O)OC(C)(C)C)nn2c(C)c1CCC(=O)NCc1ccccc1Cl` has an inhibition of -6.4%. With `COc1ccc(CCNC(=O)CCc2c(C)c3ccc(O)c(C)c3oc2=O)cc1` the inhibition was -5.29%. For `COc1cccc(C2C(=O)N(C3CCCCC3)CC(=O)N2CCc2ccc(OC)c(OC)c2)c1` (stereo not given), the inhibition was 14.3%. `Nc1nc(N)c(S(=O)(=O)c2ccccc2)c(Nc2ccccc2)n1` was tested, and the inhibition was 4.52%. In the case of `CCc1cccc(C)c1Nc1c(-c2cccs2)nc2ncccn12`, the inhibition is reported as 8.42%. In the case of `O=S(=O)(Nc1ccc(OC(F)(F)F)cc1)c1ccc(N2CCCCS2(=O)=O)cc1`, the inhibition is reported as 6.56%. With `Cc1cc(C)c(S(=O)(=O)NCC(c2ccco2)S(=O)(=O)c2ccccc2)c(C)c1` (stereo not given) the inhibition was -7.84%. `Cc1cc(C)c(NC(=O)CCN2CCCCC2)c(C)c1` showed an inhibition of 21.3%. Compound `O=C(Cn1c(=O)c2ccccc2n(CC(=O)Nc2ccccc2F)c1=O)NCCc1ccccc1` has an inhibition of -14.8%. `CCC(OC(=O)c1ccco1)C(=O)NCc1ccc(C)cc1` (stereo not given) was tested, and the inhibition was active: 66%. With `COc1ccc(NC(=O)COCc2cc(-c3ccco3)on2)cc1Cl` the inhibition was 0.919%. `O=C(Nc1ccc(F)c(F)c1)c1ccc(=O)n(Cc2ccc(F)cc2)c1` showed an inhibition of -16.2%. In the case of `CC(C)c1ccc(S(=O)(=O)NCc2nc3cccnc3n2Cc2ccc(F)cc2)cc1`, the inhibition is reported as 0.904%. Work on `Cc1ccc(NC(=O)C2CCC(CNS(=O)(=O)c3cccs3)CC2)cc1C` (stereo not given) yielded an inhibition of 9.45%. For `CCOC(=O)C1CCN(C(=O)c2ccc(C)c(NC(=O)c3nsc4ccccc34)c2)CC1`, the inhibition was 2.19%. With `CCC(=O)N1c2ccc(S(=O)(=O)CCC(=O)NCc3ccc(OC)cc3)cc2CC1C` (stereo not given) the inhibition was -8.7%.
